Test results from article PMC6919601, “Identification of Plasmodium dipeptidyl aminopeptidase allosteric inhibitors by high throughput screening” (PLoS ONE, 2019).
Screen size: about 110,000 compounds; about 230 (0.21%) showed an effect of 50% or more. This is one part of the list.

These compounds were tested against DPAP1 (Plasmodium falciparum, UniProt Q8IIJ9) (assay: primary screen, percent inhibition; read by cleavage of a fluorogenic dipeptide substrate; higher = more effect of the substance).
Design: species or system P. falciparum D10 trophozoite lysates; single well
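Also: 30 min substrate incubation versus DMSO and 10 µM JCP410 controls.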

Sequence of DPAP1 (Q8IIJ9 whole entry, looked up): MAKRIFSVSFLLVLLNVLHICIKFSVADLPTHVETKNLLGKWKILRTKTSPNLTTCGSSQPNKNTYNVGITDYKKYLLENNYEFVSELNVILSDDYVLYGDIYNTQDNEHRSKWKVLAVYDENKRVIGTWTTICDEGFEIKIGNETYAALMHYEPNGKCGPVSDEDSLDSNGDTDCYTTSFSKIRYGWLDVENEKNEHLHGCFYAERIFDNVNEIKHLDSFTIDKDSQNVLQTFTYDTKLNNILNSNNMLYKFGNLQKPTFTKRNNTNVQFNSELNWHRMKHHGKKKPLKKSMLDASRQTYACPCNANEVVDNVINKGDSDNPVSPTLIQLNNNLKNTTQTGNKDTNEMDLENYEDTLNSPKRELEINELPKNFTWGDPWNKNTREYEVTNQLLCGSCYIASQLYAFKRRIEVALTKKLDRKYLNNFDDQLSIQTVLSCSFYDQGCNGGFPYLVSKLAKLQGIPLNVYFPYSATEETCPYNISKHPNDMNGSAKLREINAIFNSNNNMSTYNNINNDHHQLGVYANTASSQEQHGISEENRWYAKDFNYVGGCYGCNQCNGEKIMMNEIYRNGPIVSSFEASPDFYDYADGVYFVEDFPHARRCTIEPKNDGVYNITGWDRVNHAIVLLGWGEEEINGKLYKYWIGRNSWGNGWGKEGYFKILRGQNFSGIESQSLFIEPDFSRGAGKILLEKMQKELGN

SMILES	% Inhibition @ 10 uM [%]
COc1ccc2[nH]cc(CCNC(=O)NC34C[C@H]5C[C@@H](C3)C[C@@H](C4)C5)c2c1	3.36
CS(=O)(=O)N(CC(=O)NC1CCCCC1)c1cc(Cl)cc(Cl)c1	-1.37
CCCOc1cccc(C(=O)N(Cc2ccc(CC)cc2)C2CCS(=O)(=O)C2)c1 (centres unmarked)	3.72
CCOC(=O)N1CCC2(CC1)OC(=O)C(C)=C2C(=O)NCc1ccc(OC)cc1	-1.07
Cc1cc(N2CCOCC2)c2c(N)ccc(C)c2n1	-2.97
Cc1nnc(NC(=O)CSc2nnc(Cc3cc(O)nc(O)n3)n2-c2ccc(F)cc2)s1	-11
NCC12CC3CC(CC(O)(C3)C1)C2	-0.239
O=C(Nc1c(O)c2ccccc2oc1=O)c1sc2ccccc2c1Cl	-2.3
CC(C)(C)Nc1nc(Cl)nc(NCCO)n1	3.9
CC/N=C1\S/C(=C\c2ccc(N(CC)CC)cc2)C(=O)N1CC	0.189
CCOc1ccc(CCNC(=O)c2sc(-n3cccc3)nc2C)cc1OCC	-2.37
CCCC[C@H](NC(=O)[C@H](CC(C)C)NC(=O)OCc1ccccc1)C(=O)CS(=O)(=O)N1CCCC1	-1.82
CC(C)OCCCn1c(SCc2ccccc2Cl)nc2nccnc2c1=O	-6.65
CC1CCCC(C)N1C(=O)Cn1ncc2c3ccccc3n(Cc3ccccc3F)c2c1=O (centres unmarked)	6.46
O=C(NCCN1CCOCC1)c1cc(-c2ccc(O)cc2)on1	-1.28
CC(C)Sc1ncc(Cl)c(C(=O)NCc2ccccc2)n1	2.41
Cc1ccc(NC(=O)CC2SC(Nc3ccc(C)cc3)=NC2=O)cc1 (centres unmarked)	-1.95
Cc1ccc(C2C=C(c3ccc(Br)cc3)Nc3nnnn32)c(C)c1 (centres unmarked)	-11.1
O=C(/C=C\Nc1ccc2c(c1)OCO2)c1ccc(Cl)s1	-0.413
CC1=CC(=C2C(=O)NC(=O)NC2=O)C=C(C)N1c1ccc(C(=O)O)cc1	7.02
CCN1CCN(C(=O)c2ccc(CS(=O)(=O)Cc3ccccc3Cl)o2)CC1	-1.79
O=C(NCCCN1CCCC1=O)c1ccc(-n2c(-c3ccccc3)cc3c2CCCC3)cc1	2.31
CC(C)C[C@H](NC(=O)c1ccc(-c2cc(C(=O)O)sc2Cl)cc1)C(=O)NCC#N	-5.2
CCc1c(C)nc2c(C)cccc2c1Cl	-8.72
Cc1ccc(CN(Cc2ccco2)C(=S)NCC(=O)NC2CCC(C)CC2)cc1 (centres unmarked)	2.9
O=S(=O)(c1ccc(Cl)cc1)c1cnc2ccccc2c1N1CCCCC1	-10.2

SMILES	% Inhibition @ 10 uM [%]
O=c1c2nnn(Cc3ccc(F)cc3)c2ncn1Cc1ccccc1Cl	-4.17
CCOc1ccccc1CNC(=O)c1cc2c(=O)n(Cc3cccs3)ccc2nc1C	-0.12
C=CCN(CC=C)Cc1c(O)ccc2oc(C)c(C(=O)NCc3ccccc3)c12	-6.72
CCn1cc(C(C)NC(=O)c2cc(-c3cccc(C)c3)nc3ccccc23)c(C)n1 (centres unmarked)	-4.84
O=c1ccccn1Cc1ccccc1F	-1.52
CCCCNC(=S)NC12CC3CC(CC(C3)C1)C2	-0.415
COc1ccccc1NC(=O)c1ccccc1NC(=O)c1ccccc1C(=O)O	-9.82
CC(NC(=O)C(Cc1ccccc1)n1cccc1)c1ccccc1 (centres unmarked)	-0.692
O=C(Cc1ccccc1)N1CCN(Cc2ccc(F)cc2)CC1	-7.14
CC1=NN(C(=O)COc2ccc(Cl)c(Cl)c2)C(O)(C(F)(F)F)C1 (centres unmarked)	-5.34
CCOc1ccc(N2C(=O)CC(NC3CCCCCCC3)C2=O)cc1 (centres unmarked)	6.48
N=C1/C(=C\c2ccc(SCc3ccco3)o2)C(=O)N=C2SC(N3CCCC3)=NN12	15.7
CCOC(=O)CNC(=O)NC(C)c1ccccc1 (centres unmarked)	-4.35
COc1ccccc1CNC(=O)C(CC1CCCCC1)C(=O)NCC#N (centres unmarked)	-11
CN(C)c1ccc(C2C(C#N)=C(N)N(c3ccccc3)C3=C2C(=O)CC(C)(C)C3)cc1 (centres unmarked)	1.08
Brc1cccc(CNC2CCN(CCc3ccccc3)CC2)c1	-2.95
COC(=O)c1[nH]c2ccccc2c1C=C1C(=O)N(C)C(=O)N(C)C1=O	5.77
CC(C)NCC(O)COc1ccc(C(C)C)cc1 (centres unmarked)	-3.93
O=C(O)c1ccc(NC(=O)c2cccc(C(=O)Nc3ccc(C(=O)O)cc3)c2)cc1	1.64
O=C(O)c1cc(-c2cccc(Cl)c2)nc2ccccc12	2.93
N#Cc1c(N)nc2c(c1-c1cccs1)CCCC2	-8.28
COc1ccccc1CNC(=O)Cn1cc2c(n1)-c1c(oc(C(=O)N3CCCC3)c1C)CC2	-3.46
COc1cc(NS(=O)(=O)c2ccc(C)cc2)c2ncccc2c1	-12
COc1ccc(NC(=O)c2ccc([N+](=O)[O-])cc2C(=O)O)c([N+](=O)[O-])c1	-1.42
CC1(C)CC(=O)C(C(C2=C(O)CC(C)(C)CC2=O)c2ccncc2)C(=O)C1 (centres unmarked)	0.716
CC(C)(C)OC(=O)N1CCC[C@H]1C(=O)NCc1ccccc1	1.96

SMILES	% Inhibition @ 10 uM [%]
CCCOc1ccc(Cc2nn3c(=O)/c(=C\c4cccs4)sc3nc2=O)cc1	-4.14
O=C(c1ccc(Cl)cc1)C(Oc1ccc(Cl)cc1)n1cncn1 (centres unmarked)	-1.84
CCOc1ccc(Nc2nc(-c3ccncc3)cs2)cc1	5.16
CCOC(=O)c1c(NC(=O)c2cccc(C)c2)sc2c1CCC(C)C2 (centres unmarked)	-5.9
COC(=O)/C(=C\C(=O)c1ccccc1)Nc1ccc(OC)cc1	-0.807
c1ccc(CN2CCN(CC(c3ccccc3)c3ccccc3)CC2)cc1	4.55
COc1ccc2c(Sc3ccccc3)c(C(=O)N3CCN(C)CC3)[nH]c2c1	-0.229
O=C1NC(=O)/C(=C\c2cccn2-c2ccccc2F)N1	2.76
Cc1ccc(CNC(C)Cc2ccccc2)o1 (centres unmarked)	-0.262
O=C(Nc1cccc2ccccc12)c1cccnc1Cl	-5.54
CCOc1c([N+](=O)[O-])cc2c(C)c(C(=O)N3CCOCC3)oc2c1OCC	-0.999
CCCc1nn2cc(-c3ccccc3)nc2s1	-4.54
CCOc1cc(C2C(C#N)=C(N)Oc3[nH]nc(C)c32)ccc1OCCN1CCOCC1 (centres unmarked)	0.121
O=S(=O)(Nc1ccc2c(c1)OCCO2)c1ccc(-c2ccccc2)cc1	4.67
CCc1cccc(NC(=O)c2ccc(OC(F)F)cc2)c1	2.4
CC(C(=O)NC1CCN(Cc2ccccc2)CC1)n1ncn2cccc2c1=O (centres unmarked)	0.371
OC1CCN(Cc2cccc(Cl)c2)CC1	-1.93
CCCCCCCCc1ccc(-c2ccc(C(N)=O)cc2)cc1	0.912
COc1ccc(NC(=O)C(C(=O)Nc2ccc(OC)cc2)C23CC4CC(CC(C4)C2)C3)cc1	-6.82
CC1CCCN(S(=O)(=O)c2ccc(-c3ccc(O)nn3)o2)C1 (centres unmarked)	-3.84
CC(=O)Nc1cccc(C2=Nc3ccccc3SC(c3cccs3)C2)c1 (centres unmarked)	0.389
Cc1ccc(C#N)c(SCC(=O)O)n1	-0.771
CCCCNC(=O)CSc1nc2nnc(C)c-2c(N)n1-c1cc(Cl)ccc1C	4.35
Cc1cccc(N(CC(=O)N2CCCCCC2)S(=O)(=O)c2ccccc2)c1C	4.57
Cc1c2cnn(CC(=O)N3CCN(C)CC3)c(=O)c2c(C)n1Cc1ccccc1Cl	2.84
Brc1ccccc1N1CC(c2ccccc2)C(c2cccs2)=N1 (centres unmarked)	4.55

SMILES	% Inhibition @ 10 uM [%]
Nc1c(Cl)cc(N2C(=O)C3CCCCC3C2=O)cc1Cl (centres unmarked)	-1.57
CCCCOc1ccc(-c2ncc(C(=O)O)c(C)n2)cc1	7.47
COc1ccc(-c2ncnn2-c2ccc(Cl)cc2)cc1OC	-1.96
O=C(Nc1ccc2c(c1)OCCO2)c1cc(Cl)ccc1Cl	-3.69
Cc1cc(C)c2nc(N3CCC(C(=O)N4CC(C)CC(C)C4)CC3)sc2c1 (centres unmarked)	-3.35
CCc1cc(C(=O)c2ccccc2)c(N)s1	-0.759
O=C(O)c1cc(N2C(=O)c3ccc([N+](=O)[O-])cc3C2=O)ccc1O	-2.63
CN1C(=O)/C(=C/c2cccs2)S/C1=N/c1cccc(C(=O)O)c1	14.4
COc1ccc(CON=C(N)N)cc1	0.193
COCc1cc(C)n(CC(=O)N2CCCC2)c(=O)c1C#N	1.76
Cc1ccccc1OCc1nc2c3cnn(C)c3ncn2n1	-1.11
CSc1ccccc1NC(=O)c1cccc(COCC(F)(F)C(F)F)c1	-7.02
CCc1nnc(NC(=O)Cn2ncc3c2-c2ccccc2OC3)s1	-6.3
COc1ccc(-c2csc(/C(C#N)=C/c3cccc(Cl)c3)n2)cc1	0.912
COc1ccc(N2C(=O)c3ccccc3NC2c2ccccc2F)cc1 (centres unmarked)	-4.39
O=c1c2c([nH]c(=S)n1Cc1ccccc1)-c1ccccc1CC2C1CCCCC1 (centres unmarked)	3.01
COc1ccccc1CNC(=O)c1cc(O)nc2ccc(S(=O)(=O)N3CCCCC3C)cc12 (centres unmarked)	2.05
COc1ccc(/C=C(/C#N)c2nc(-c3ccc(C)cc3)cs2)cc1	1.76
CCCCOC(=O)N1C2C=CC(C2)C1(C(F)(F)F)C(F)(F)F (centres unmarked)	-4.35
CCCc1c(C)nc2ccccc2c1S	-0.941
N#C/C(=C\c1cccs1)c1nc(-c2ccc(Br)cc2)cs1	-2.44
COCCNc1nc2ccccc2n2cnnc12	-2.42
COc1ccc(/C(O)=C/C=N/c2ccc(Cl)cc2)cc1OC	0.851
